One assay concerns the target T1, PfAsnRS^R487S (Plasmodium falciparum, UniProt O96198, R487S).
T1 sequence (O96198 1-610 R487S): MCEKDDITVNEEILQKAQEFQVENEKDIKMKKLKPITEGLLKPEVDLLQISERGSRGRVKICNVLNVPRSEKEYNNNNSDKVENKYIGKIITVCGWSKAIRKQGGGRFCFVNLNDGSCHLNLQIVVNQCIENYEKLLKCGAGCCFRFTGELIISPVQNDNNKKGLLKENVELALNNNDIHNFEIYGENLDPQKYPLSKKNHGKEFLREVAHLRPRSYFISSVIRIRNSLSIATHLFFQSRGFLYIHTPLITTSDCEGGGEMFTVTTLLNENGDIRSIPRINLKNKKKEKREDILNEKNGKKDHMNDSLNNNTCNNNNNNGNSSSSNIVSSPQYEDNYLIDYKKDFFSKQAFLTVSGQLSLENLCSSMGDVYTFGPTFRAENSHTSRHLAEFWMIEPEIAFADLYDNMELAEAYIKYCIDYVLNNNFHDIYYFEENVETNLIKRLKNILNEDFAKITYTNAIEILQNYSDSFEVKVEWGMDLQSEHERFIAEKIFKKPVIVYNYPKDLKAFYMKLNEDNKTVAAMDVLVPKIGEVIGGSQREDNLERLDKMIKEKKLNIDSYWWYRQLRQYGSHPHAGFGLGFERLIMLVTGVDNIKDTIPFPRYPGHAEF
Description: biochemical.

Assay [1] relates to P. falciparum PfAsnRS^R487S mutant line (Dd2). Description: 72 h sensitivity of CRISPR-edited PfAsnRS R487S line. Type of assay: cell-based, Plasmodium falciparum. Conditions: for IC50: Plasmodium falciparum. From the text:
Two guide RNAs were designed using Benchling (benchling.com). The gRNA1 (5’-[…]-3’) and gRNA2 ([…]) were located near the mutation site. Both gRNAs and their complementary sequences were synthesized as primers by IDT. Each gRNA was cloned into the pDC2-coCas9-gRNA plasmid. A donor template of 780 bp, encompassing coding nucleotide sequences 1045-1824, was synthesized (Thermo Fisher Scientific) and assembled at the AatII and EcoRI sites using NEBuilder HiFi DNA Assembly. […] Transfections were performed on ring-stage Dd2 parasites using a BioRad Gene Pulser II as described, with 5 nM WR99210 drug pressure applied for 8 days. Edited clones were isolated by limiting dilution and validated by Sanger sequencing.

The record followed here is paper PMC10831071, “Reaction hijacking inhibition of Plasmodium falciparum asparagine tRNA synthetase” (Nature Communications, 2024).

Where “and” joins values, the source holds several entries; their conditions need not be identical. Equal values may be shown once. Read-outs that look alike come from different tables or passages of the source.

On to `NC(=O)C[C@H](N)C(=O)NS(=O)(=O)c1cccc(-c2cc3ncnc(N)c3s2)c1` [Asn-OSM-S-106], for which the ATP consumption at PfAsnRS^R487S (0.005 μM Asn-OSM-S-106, PfAsnRSR487S, 0 μM = 100 (Fig 3F), 0.005 µM) is 101.371 and 90.5979 and 103.201. In addition, the activity at 0.005 µM at PfAsnRS^R487S (read-out: ATP consumption, 0.005 μM Asn-OSM-S-106, PfAsnRSR487S, 0 μM = 100 (Fig 3F)) was found to be 95.3%.
In the case of `Nc1ncnc2cc(-c3cccc(S(N)(=O)=O)c3)sc12` [OSM-S-106], the “decreased sensitivity of PfAsnRS^R487S line vs Dd2 parent” value in assay [1] (72 h) was 2.3 fold. Moreover, the IC50 in assay [1] (DD2, PfAsnRSR487S mutant line, individual experiments) was 156 nM; in assay [1] (DD2, PfAsnRSR487S mutant lines, mean ± S.D., five experiments), 165 nM; against PfAsnRS^R487S, greater than 500 µM; at PfAsnRS^R487S (read-out: IC50, ATP consumption, plus E. coli tRNA, 0.5 μM enzyme, 37 °C, […] (Fig. 3B)), 26 µM. For the same molecule, the ATP consumption on PfAsnRS^R487S (0.1 μM OSM-S-106, PfAsnRSR487S + tRNA, 0 μM = 100, 0.1 µM) is 104.503 and 121.093; at PfAsnRS^R487S (0.1 μM OSM-S-106, PfAsnRSR487S - tRNA, 0 μM = 100, 0.1 µM), 99.7961 and 126.786 and 109.576; on PfAsnRS^R487S (1 μM OSM-S-106, PfAsnRSR487S + tRNA, 0 μM = 100, 1 µM) it was 98.1499 and 122.134; at PfAsnRS^R487S (1 μM OSM-S-106, PfAsnRSR487S - tRNA, 0 μM = 100, 1 µM), 97.0073 and 108.474; on PfAsnRS^R487S (5 μM OSM-S-106, PfAsnRSR487S + tRNA, 0 μM = 100, 5 µM), 72.6057 and 105.524; on PfAsnRS^R487S (5 μM OSM-S-106, PfAsnRSR487S - tRNA, 0 μM = 100, 5 µM) it was 99.0484 and 82.6223 and 109.414. Besides, the ATP consumption on PfAsnRS^R487S (10 μM OSM-S-106, PfAsnRSR487S + tRNA, 0 μM = 100, 10 µM) is 72.3365 and 96.7874; on PfAsnRS^R487S (10 μM OSM-S-106, PfAsnRSR487S - tRNA, 0 μM = 100, 10 µM), 109.074 and 99.9339 and 120.869; on PfAsnRS^R487S (25 μM OSM-S-106, PfAsnRSR487S + tRNA, 0 μM = 100, 25 µM), 51.6084 and 69.971; at PfAsnRS^R487S (25 μM OSM-S-106, PfAsnRSR487S - tRNA, 0 μM = 100, 25 µM), 95.4034 and 95.4106; on PfAsnRS^R487S (100 μM OSM-S-106, PfAsnRSR487S + tRNA, 0 μM = 100, 100 µM), 22.4032; at PfAsnRS^R487S (100 μM OSM-S-106, PfAsnRSR487S - tRNA, 0 μM = 100, 100 µM), 118.999 and 92.1296 and 93.7483. On PfAsnRS^R487S (read-out: ATP consumption, 1 μM OSM-S-106, PfAsnRSR487S - tRNA, 0 μM = 100), the activity at 1 µM worked out at 92.7%. In addition, the activity at 25 µM on PfAsnRS^R487S (read-out: ATP consumption, 25 μM OSM-S-106, PfAsnRSR487S - tRNA, 0 μM = 100) was found to be 109%. For the same molecule, the activity at 200 µM on PfAsnRS^R487S (read-out: ATP consumption, 200 μM OSM-S-106, PfAsnRSR487S - tRNA, 0 μM = 100) was 105%. For the same molecule, the activity at 500 µM at PfAsnRS^R487S (read-out: ATP consumption, 500 μM OSM-S-106, PfAsnRSR487S - tRNA, 0 μM = 100) was found to be 110%.
